Consider 12 compounds from PubChem BioAssay (Tox21).

The nature of test [1]: qHTS assay for small molecule disruptors of the mitochondrial membrane potential (AID 720635). Particulars: HepG2 mitochondrial membrane potential, Mito-MPS dye ratio. Summed up:
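HepG2 cells exposed to compound 1 hr at 37C, then Mito-MPS dye 30 min. Ratio read of aggregate (540/590 nm) versus monomer (490/535 nm) fluorescence.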

Test [2] deals with Androgen receptor (Homo sapiens) (UniProt P10275). The test is described as follows: qHTS assay to identify small molecule agonists of the androgen receptor (AR) signaling pathway using the MDA cell line (AID 743040; note: nearly all actives have a fitted effect of over 20% in size). Particulars: MDA-kb2 AR-luc cells, MMTV luciferase, 16 h; series mostly up to 70.3 µM. (Quantitative high-throughput screening tests each substance at several concentrations.)
Chain of UniProt P10275 (P10275 whole entry, looked up): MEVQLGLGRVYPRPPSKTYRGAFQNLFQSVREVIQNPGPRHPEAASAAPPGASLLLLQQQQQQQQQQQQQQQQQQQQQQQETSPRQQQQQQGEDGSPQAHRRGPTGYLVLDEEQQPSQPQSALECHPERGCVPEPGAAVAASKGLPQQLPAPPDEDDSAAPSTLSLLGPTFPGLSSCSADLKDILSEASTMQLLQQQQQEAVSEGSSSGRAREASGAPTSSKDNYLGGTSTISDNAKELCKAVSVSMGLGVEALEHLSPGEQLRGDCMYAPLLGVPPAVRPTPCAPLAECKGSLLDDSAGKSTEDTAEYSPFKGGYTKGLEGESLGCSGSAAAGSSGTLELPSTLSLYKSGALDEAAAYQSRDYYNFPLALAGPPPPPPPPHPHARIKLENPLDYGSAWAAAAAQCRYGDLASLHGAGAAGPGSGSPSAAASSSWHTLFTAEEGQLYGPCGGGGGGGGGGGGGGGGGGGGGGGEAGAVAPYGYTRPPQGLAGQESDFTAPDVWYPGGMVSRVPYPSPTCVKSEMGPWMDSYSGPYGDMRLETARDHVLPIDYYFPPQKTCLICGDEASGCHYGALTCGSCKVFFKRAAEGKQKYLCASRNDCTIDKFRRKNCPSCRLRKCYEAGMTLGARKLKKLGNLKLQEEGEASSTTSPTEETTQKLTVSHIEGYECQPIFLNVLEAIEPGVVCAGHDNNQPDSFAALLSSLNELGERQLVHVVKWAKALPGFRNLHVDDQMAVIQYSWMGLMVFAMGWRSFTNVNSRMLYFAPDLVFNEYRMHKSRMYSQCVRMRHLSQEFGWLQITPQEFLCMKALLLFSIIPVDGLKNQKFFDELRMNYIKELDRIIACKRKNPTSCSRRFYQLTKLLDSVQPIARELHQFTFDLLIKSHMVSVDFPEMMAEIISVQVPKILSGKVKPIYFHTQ

Test [3] is described as follows: qHTS assay to identify small molecule antagonists of the androgen receptor (AR) signaling pathway using the MDA cell line - cell viability counter screen (AID 743041; note: nearly all actives have a fitted effect of over 45% in size). The conditions noted are these: MDA-kb2 viability, CellTiter-Fluor, 16 h, cells co-treated with R1881 androgen agonist; series mostly up to 70.3 µM. Summed up:
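Cytotoxicity counter screen: MDA-kb2 AR-luc cells, compound + R1881, 16 h, 37C, 0% CO2; CellTiter-Fluor added at 15.5 h, fluorescence read after 30 min.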

The nature of test [4]: qHTS assay to identify small molecule antagonists of the peroxisome proliferator-activated receptor gamma (PPARg) signaling pathway - cell viability counter screen (AID 743194). Note: nearly all actives have a fitted effect of over 55% in size. Particulars: PPARg-bla HEK293H viability, CellTiter-Glo luminescence, 17 h, co-treated with 50 nM rosiglitazone; series mostly up to 62.6 µM. In outline:
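Cytotoxicity counter screen in PPARg-bla HEK293H cells, same wells as reporter assay. Compounds plus 50 nM rosiglitazone (final) for 17 h at 37 C, then viability read by CellTiter-Glo luminescence.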

Test [5] in a line: qHTS assay to identify small molecule antagonists of the constitutive androstane receptor (CAR) signaling pathway - cell viability counter screen (AID 1224837). Note: nearly all actives have a fitted effect of over 45% in size. Particulars: HepG2-CYP2B6-hCAR viability, CellTiter-Fluor, 23 h, co-treated with 50 nM CITCO; series mostly up to 92.4 µM. Summed up:
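CITCO at 50 nM final was added alongside compounds (15 concentrations) to double-stable hCAR/CYP2B6-2.2kb HepG2 cells. Following 23 hr at 37 C, cell viability was quantified by CellTiter-Fluor fluorescence intensity.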

Test [6] can be described thus: qHTS RealTime-Glo MT Cell Viability Assay in HEK293 cells - 0 hour (AID 1224880). Note: nearly all actives have a fitted effect of over 45% in size. Particulars: RealTime-Glo luminescence; series mostly up to 35.3 µM. In outline: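 Kinetic, non-lysing viability readout. Seed HEK293 (600/well) with reagent, incubate 5 h at 37 C/5% CO2, pin 23 nL compound in DMSO, incubate at 37 C, read luminescence at 0, 8, 16, 24, 32, 40 h.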
A short description of test [7]: qHTS assay to identify small molecule agonists of the sonic hedgehog signaling (Shh) pathway (AID 1259368; calls by dose curve; note: nearly all actives have a fitted effect of over 15% in size). Particulars: NIH/3T3 Gli1-Luc reporter, luciferase, 24 h; series mostly up to 92.4 µM. In outline: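 Following a 24 hr incubation with DMSO-dissolved compounds at 37 C, 5% CO2, Gli1-Luc NIH/3T3-derived cells received luciferase reagent for 30 min at room temperature prior to luminescence measurement.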

Test [8] is described as follows: qHTS assay to identify small molecule antagonists of the progesterone receptor (PR) signaling pathway - cell viability counter screen (AID 1346798). Note: nearly all actives have a fitted effect of over 50% in size. The conditions noted are these: PR-UAS-bla HEK293T viability, CellTiter-Glo luminescence, 16 h; series mostly up to 42.5 µM. An excerpt:
National Center for Advancing Translational Sciences [NCATS]
NIH Chemical Genomics Center [NCGC]
U.S. Environmental Protection Agency [EPA]
National Institutes of Environmental Health Sciences [NIEHS]
National Toxicology Program [NTP]
U.S. Food and Drug Administration [FDA]
Progesterone receptor (PR), a nuclear hormone receptor, plays an important role in development, metabolic homeostasis and reproduction. It is activated by the steroid hormone progesterone. Endocrine disrupting chemicals (EDCs) and their interactions with steroid hormone receptors like PR causes disruption of normal endocrine function. […]
PR-UAS-bla HEK293T cells were dispensed at 3,000 cells/4 uL of assay medium containing 2% charcoal stripped FBS per well into black wall/clear-bottom 1536-well plates using a Multidrop Combi (ThermoFisher Scientific, Waltham, MA) dispenser. […] Then 1 uL of LiveBLAzer B/G FRET substrate was added using a Flying Reagent Dispenser, the plates were incubated at room temperature for 2 hours, and fluorescence intensity was measured by an Envision plate reader (PerkinElmer, Shelton, CT). For cell viability readout that measures cytotoxicity, 4 uL/well of CellTiter-Glo reagent was added into the assay plates using a FRD. After 30 min incubation at room temperature, the luminescence intensity in the plates was measured using a ViewLux (PerkinElmer) plate reader.

Test [9] can be described thus: qHTS assay to identify small molecule antagonists of the TGF-beta/Smad signaling pathway - cell viability counter screen (AID 1346824). Note: nearly all actives have a fitted effect of over 50% in size. The conditions noted are these: SBE-bla HEK293T viability, CellTiter-Glo luminescence; series mostly up to 35.3 µM. From the text:
U.S. Tox21 Program National Center for Advancing Translational Sciences [NCATS] NIH Chemical Genomics Center [NCGC] U.S. Environmental Protection Agency [EPA] National Institutes of Environmental Health Sciences [NIEHS] National Toxicology Program [NTP] U.S. Food and Drug Administration [FDA] Tox21 Assay Overview: Transforming growth factor beta (TGF-beta) superfamily consists of a large number of structurally related dimeric proteins that act as hormones or local mediators in regulating a wide range of biological functions. This superfamily includes TGF-betas themselves, the bone morphogenetic proteins (BMPs) and the activins. […]
Tox21 Assay Protocol Summary: SBE-bla HEK 293T cells were dispensed at 4,000/well in 5 uL of assay medium into black wall/clear-bottom 1536-well plates using a Multidrop Combi (ThermoFisher Scientific, Waltham, MA) dispenser. […] Fluorescence intensity (405 nm excitation, 460 nm and 530 nm emissions) was measured using an Envision plate reader (PerkinElmer, Shelton, CT). For cytotoxicity read, 4 uL of CellTiter-Glo reagent (Promega Corporation, Madison, WI) was added to each well of the assay plates using FRD. After 30 min incubation at room temperature, the luminescence intensity was measured using ViewLux plate reader (PerkinElmer).

Structures are written as SMILES. Results filed as inconclusive are left out. Unless noted, calls come from the whole dose curve; as a rule, active = well fitted curve in the direction sought with a large enough effect in the repeat runs; inconclusive = weak or mixed curves; inactive = no such curve, though single readings can be large; an effect the other way counts as inactive or inconclusive. A number of entries come with more than one value. This is not the full list of results. An entry can have further records. The values listed for one entry repeat one measurement across runs, samples, wells, individuals or studies. Some compounds were tested as several samples or in several runs, with calls that do not always agree. Marks in square brackets tell the records apart. Letters hold for one entry only.
Potency is the fitted concentration of half-maximal effect.

With `Cc1cc2nc3c(=O)[nH]c(=O)nc-3n(C[C@H](O)[C@H](O)[C@H](O)CO)c2cc1C`, the Potency entry in test [1] is “active: 11.9, 10.6, 3.4, 3.58 µM [separate samples]”.

For the compound `Cc1ccc2c(n1)Oc1ccc(C(C)C(=O)OCC(=O)N(C)C)cc1C2` (configuration not stated), the Potency result in test [2] is “active: 26.6 µM [sample A] and inactive [sample B]”.

Take `O=C(Nc1ccc([N+](=O)[O-])cc1Cl)c1cc(Cl)ccc1O`: in test [3], the Potency entry is “inactive [sample A] and active: 1.54 µM [sample B]”.

Turning to `Cc1ccc(C(=O)c2cc(O)c(O)c([N+](=O)[O-])c2)cc1`, the Potency entry in [4] is “active: 19.5 µM [sample A] and inactive [sample B]”.

As for `CC(=O)O[C@]1(C(C)=O)CC[C@H]2[C@@H]3C=C(Cl)C4=CC(=O)[C@@H]5C[C@@H]5[C@]4(C)[C@H]3CC[C@@]21C`, the Potency entry in test [4] is “active: 54.9 µM [sample A] and inactive [sample B] and inactive [sample C]”.

For `O=C(c1ccccc1)c1ccc(O)cc1O`, the Potency entry in test [5] was “active: 62.3 µM [sample A] and inactive [sample B]”.

As for `O=C1OC2(c3cc(Br)c(O)c(Br)c3Oc3c2cc(Br)c(O)c3Br)c2c(Cl)c(Cl)c(Cl)c(Cl)c21`, in test [6], the Potency entry was “active: 24.6 µM [sample A] and inactive [sample B]”.

Turning to `O=C(/C=C/C=C/c1ccc2c(c1)OCO2)N1CCCCC1`, in [7], the Potency entry was “inactive [sample A] and active: 3.86 µM [sample B]”.

Take `CC(C)Oc1ccc2c(=O)c(-c3ccccc3)coc2c1`: the Potency result in test [7] was “inactive [sample A] and active: 5.96 µM [sample B]”.

Regarding `CC(=O)Oc1ccccc1C(=O)Nc1ncc([N+](=O)[O-])s1`, the Potency result in [8] is “active: 39.3 µM [sample A] and inactive [sample B]”.

Take `Brc1cc(Oc2cc(Br)c(Br)c(Br)c2Br)c(Br)c(Br)c1Br`: the Potency entry in test [8] is “active: 34.5 µM [sample A] and inactive [sample B]”.

In the case of `Cc1c(C(N)=O)cc([N+](=O)[O-])cc1[N+](=O)[O-]`, the Potency entry in test [9] is “active: 4.9 µM [sample A] and inactive [sample B]”.
